Reference: the BET-seq Pho4 binding data (Le et al. 2018)
Some of the results follow. Values were computed here from the reads of four pooled replicates and scatter widely.

target: T1, Pho4 (S. cerevisiae) (UniProt P07270); experiment: relative binding free energy (BET-seq); higher = weaker binding; settings: reference: library average
T1 sequence: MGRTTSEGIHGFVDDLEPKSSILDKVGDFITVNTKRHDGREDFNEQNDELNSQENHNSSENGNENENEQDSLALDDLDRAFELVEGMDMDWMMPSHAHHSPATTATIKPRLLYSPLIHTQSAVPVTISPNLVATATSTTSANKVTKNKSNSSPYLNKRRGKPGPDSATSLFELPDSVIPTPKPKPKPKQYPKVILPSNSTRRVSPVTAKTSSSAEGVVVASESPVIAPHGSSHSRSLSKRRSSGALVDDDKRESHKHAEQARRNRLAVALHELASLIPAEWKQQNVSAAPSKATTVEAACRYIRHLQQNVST

Sequence | relative binding free energy [kcal/mol]
AGGATCACGTGAGTTG | 0.35
CTGGGCACGTGAGTAA | 0.11
TGGAGCACGTGTCTTT | -0.03
TAGGACACGTGGGCAT | -0.07
TTATACACGTGGGGAT | -0.05
GAATGCACGTGGTGGC | 0.06
TAGGTCACGTGCGGGA | 0.06
AGGTGCACGTGAAGGA | 0.25
GATGGCACGTGGGTTT | -0.11
CGAGTCACGTGGGGCT | -0.21
AAGGACACGTGGGCGT | -0.23
GTGGTCACGTGTTCTG | 0.18
TGTTACACGTGGGGCT | -0.04
TGGGGCACGTGGTGTA | -0.16
CGGGTCACGTGTGGGG | 0.11
AGTTACACGTGGGGCT | 0.02
TTGAACACGTGCGAGG | 0.02
AGTGTCACGTGTCCTG | 0.15
TTGTTCACGTGCATTC | 0.26
GGTATCACGTGCCGGG | 0.11
GTGTCCACGTGGAGGG | 0.04
ATTCTCACGTGGGGTG | 0.15
TGTGCCACGTGGAGAG | -0.14
GTATGCACGTGCTGGG | -0.13
GTGCGCACGTGCGTAG | 0
GGGTGCACGTGCAAGA | 0

Sequence | relative binding free energy [kcal/mol]
TGGCGCACGTGGGGGA | -0.27
GTTGCCACGTGTGTTA | -0.14
TGTTACACGTGGCTGG | 0.02
TAGTGCACGTGTTTAT | 0.1
ATGGGCACGTGCTCGT | -0.25
TTAATCACGTGTGGTC | 0.31
GCTAGCACGTGGGTGT | -0.14
TACAGCACGTGTTGTT | -0.13
CTGGACACGTGGCGGT | -0.1
CTATACACGTGTTTGT | 0.03
CTCGTCACGTGGTTGA | 0.17
ACGGACACGTGGGTGT | -0.26
ACGAACACGTGGTGTG | -0.14
CGTGGCACGTGTGTCA | -0.04
GATATCACGTGGCGTT | 0.18
GGGCTCACGTGATGTG | 0.39
TTTTACACGTGCGAGG | 0.26
TAGGGCACGTGCGCGT | -0.39
AAATTCACGTGAGGGA | 0.21
TTGTTCACGTGTAAAG | 0.31
GTCGTCACGTGTGGCC | 0.42
GATTACACGTGGATGT | 0.17
TCGAGCACGTGTGGTA | -0.09
AGGACCACGTGAAGGG | 0.21
TTGGCCACGTGTGAGG | 0.15
TTAATCACGTGTTGGG | 0.17

Sequence | relative binding free energy [kcal/mol]
TGATACACGTGGATGT | 0.08
GTTCTCACGTGAGTTG | 0.23
ATATGCACGTGGGAAG | -0.08
CAATGCACGTGTTGGT | 0.01
ATAGACACGTGTTAGG | 0.12
AGTTGCACGTGCGTCG | -0.04
TTTAACACGTGAATTT | 0.39
CAGGGCACGTGGGGCT | -0.3
TTAAGCACGTGGGCGA | -0.23
TCGGTCACGTGTAGTA | 0.17
GGTGTCACGTGAAGTA | 0.2
TGGTACACGTGAAAGA | 0.3
TCATACACGTGGTTTG | -0.01
AGCAGCACGTGTGGAG | 0.04
ATAGTCACGTGGTTTC | 0.16
TTGTTCACGTGGATAG | 0.19
AGAGACACGTGTGCGA | 0.24
GGTGTCACGTGTGACA | 0.11
CATAGCACGTGTGGTA | 0.03
AAGTTCACGTGGCAGT | 0.21
TATAGCACGTGGTTTG | -0.14
CTTGGCACGTGATGCG | 0.04
GGAAGCACGTGAAGGG | 0.13
TTAAGCACGTGGATGG | -0.16
TAATTCACGTGTTAGG | 0.34
CGGGTCACGTGTATTG | 0

Sequence | relative binding free energy [kcal/mol]
CTATTCACGTGTGGGA | 0.21
TCTAACACGTGTGGGT | 0.09
ATATACACGTGGATGG | 0.1
GGCGGCACGTGGACGT | 0
TAGGGCACGTGACGTT | -0.02
GGGGGCACGTGGCATA | -0.33
TAGACCACGTGTTGGG | -0.04
AGTGGCACGTGGTTGG | -0.05
GGAGGCACGTGTTATA | -0.09
ATTCACACGTGGTGAT | 0.04
CTGAGCACGTGGTAGA | -0.08
GTTTCCACGTGCGAGG | 0.16
TTTGCCACGTGAAAGT | 0.14
TGTCGCACGTGGAGAG | 0.02
TTGTCCACGTGTATGC | 0.1
GGGCACACGTGCGTGG | -0.14
CGGGCCACGTGTAGGA | 0.13
ATAGTCACGTGAGGAG | 0.27
AAATGCACGTGTAAGT | 0.17
CTGTGCACGTGGTGAG | -0.17
GTTCGCACGTGGGGTC | -0.3
ATATTCACGTGTCGTA | 0.18
GGTTGCACGTGAACAT | 0.25
TGGATCACGTGATGCT | 0.22
TTGTCCACGTGGCGGT | -0.16
GAACTCACGTGGGGTA | 0.15

Sequence | relative binding free energy [kcal/mol]
GACGACACGTGGGTGT | 0.02
GGTTTCACGTGCAGTT | 0.38
TAATTCACGTGTGCTA | 0.35
TTCCGCACGTGTTGGT | 0.09
GTGTCCACGTGGTGGG | 0
TGTTCCACGTGTTATG | 0.08
TTTCACACGTGGGTGC | -0.06
TTTCGCACGTGTGGCG | -0.08
GATGTCACGTGCATGG | -0.02
TTTAGCACGTGATGTT | 0.03
CGAGACACGTGTGTGT | 0.11
GGTTTCACGTGAGAGC | 0.46
TGTTTCACGTGCAGAG | 0.28
CGGTCCACGTGTGGGG | 0.02
CAGTACACGTGATTGG | 0.24
AGGTGCACGTGGCGTG | -0.26
GAAAGCACGTGTGTTT | 0.06
ATGGTCACGTGGATAA | 0.14
GCGTACACGTGTGTAT | 0.16
TTTCACACGTGTATTA | 0.09
AGTTTCACGTGCGCTT | 0.22
TCGTGCACGTGGGCGG | -0.1
TGGCTCACGTGGGCTG | 0.04
TTAGACACGTGTGGTC | 0.1
ATTGGCACGTGAGTAA | 0.03
AGATTCACGTGAAGTG | 0.38

Sequence | relative binding free energy [kcal/mol]
GGGATCACGTGGCGCT | 0.14
TATGTCACGTGTTTTA | 0.04
CGTATCACGTGTGTTG | 0.01
AGGCGCACGTGGTAGG | -0.13
GTAAGCACGTGACTGG | 0.1
TAGGTCACGTGTGTCG | 0.13
CTGCTCACGTGAGGGT | 0.32
AGGAACACGTGAGTGG | 0.09
TGATGCACGTGTAAAG | 0.02
GTAGTCACGTGGTAGA | 0
TATAACACGTGTATGT | -0.04
TGTAGCACGTGGGTCA | -0.26
TGAAACACGTGTGTGT | 0.11
CTTTGCACGTGTGCAG | 0.04
AGTGGCACGTGTAGGC | -0.01
CGAAGCACGTGTGGGC | 0.03
TAAGGCACGTGTACTT | -0.02
GGTGGCACGTGAGTCT | 0.23
GATTACACGTGTGTCG | 0.34
GAATACACGTGGAGGT | 0.02
ATCTGCACGTGGGGTC | -0.14
ATTGGCACGTGAGTGT | 0.08
GAGCTCACGTGTTTAG | 0.34
GAGTACACGTGGTACT | 0.16
AGAGGCACGTGATTGG | -0.13
TAGTGCACGTGTCAGG | -0.06

Sequence | relative binding free energy [kcal/mol]
GATGTCACGTGGGTCA | 0.07
ACGTGCACGTGGGTGG | -0.19
AGTTTCACGTGTATGG | 0.31
GTGGACACGTGCAGGT | 0.01
GTGGGCACGTGCAAAG | 0
TGAAACACGTGTGGCG | -0.01
GCGATCACGTGTTGGG | 0.19
AAAAACACGTGGTGTG | 0.02
GTATTCACGTGTGTGG | 0.33
GTGGTCACGTGAACGG | 0.21
TCATGCACGTGGGGTC | -0.26
ATTGACACGTGGGTCG | -0.14
GGTTTCACGTGTCCTG | 0.19
TTATTCACGTGTGAGA | 0.28
TTTGACACGTGGGTTA | -0.06
GATTGCACGTGGGTGG | 0.02
TAAGTCACGTGTCTGT | -0.01
GTGTGCACGTGTGGTG | 0.05
AAACACACGTGTGGGT | 0.03
TTTCACACGTGTCGGG | 0.14
ATGTACACGTGTTGGG | 0.06
TGCATCACGTGTGGTA | 0.11
TATGACACGTGGGGGG | -0.17
TTGGGCACGTGGCCGT | -0.1
TGGCTCACGTGGGTTG | 0.08
ATTTTCACGTGATCTG | 0.15

Sequence | relative binding free energy [kcal/mol]
TGGCGCACGTGAGGTC | 0.14
TTATTCACGTGCTGAA | 0.25
TGATACACGTGGTTAG | -0.02
TTGTTCACGTGTCACT | 0.28
GTTTGCACGTGTTCAT | 0.08
TATTTCACGTGCTAGT | 0.07
GGGTACACGTGTTGCT | 0.03
TGATGCACGTGTGCAG | -0.07
ATAGACACGTGATTAT | 0.18
TGCACCACGTGGGGGT | -0.33
TTTGTCACGTGAATAT | 0.34
TTTTTCACGTGGATAC | 0.22
TAGTTCACGTGCATGG | 0.19
ATGGCCACGTGGCAGT | -0.08
TATCTCACGTGTTGTG | 0.19
AGGGCCACGTGGGGAT | -0.42
TGGTTCACGTGGGTAC | -0.08
TGTCCCACGTGAGTGT | 0
TGGCTCACGTGGGGGG | 0.14
CTTGGCACGTGTGTTG | -0.08
ATAGACACGTGGTGGT | -0.09
CGGGTCACGTGTGTAG | 0.08
GTTGTCACGTGGAGCC | 0.15
CGGGGCACGTGGATCG | -0.06
GGTGTCACGTGGATTC | 0.16
GGGTTCACGTGGCTAG | 0.42

Sequence | relative binding free energy [kcal/mol]
TTAGTCACGTGTAGGC | 0
GTGGGCACGTGCAAGA | -0.08
TCGTGCACGTGGTATT | -0.16
CTTTGCACGTGGACGT | 0.07
GCATTCACGTGGTTGG | 0.21
AATATCACGTGGATGT | 0.14
TAACACACGTGGTGTG | -0.16
TTGATCACGTGAAAGG | 0.32
TATAGCACGTGTGCAG | -0.02
TGGGACACGTGGTGTC | -0.09
CGGTTCACGTGCGGTG | 0.21
ATGAACACGTGGAGTA | 0.09
TTGGACACGTGCGTGA | 0.01
GGTGACACGTGGTTTT | 0.08
TCTTGCACGTGAATGT | 0.31
CATGTCACGTGTGTGC | 0.12
TGTCACACGTGTGGTG | 0.05
AATGACACGTGCAGGG | -0.01
CGTTCCACGTGTGTGT | 0.03
AAGTTCACGTGGTTGA | 0.34
CAGTGCACGTGAACGG | 0.4
AAAAGCACGTGAGTTG | 0.15
